Assay results reported in the supplement of paper PMC9151546.
Repeats are few or missing, and single values can be far off.

What was measured:
[1] = tested on: CHO-K1; experiment: relative survival (nuclei to bead ratio vs DMSO control) (% of vehicle control); higher = more surviving cells
Protocol: (§1)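 Flow-cytometric in vitro micronucleus assay (Litron MicroFlow) in CHO-K1 cells in 96-well plates, 19 concentrations (4.5-200 µM, n=1 per concentration). Without S9, cells were exposed for 24 h and sampled at 48 h. With Aroclor 1254-induced rat liver S9, cells were exposed for 3-4 h and sampled at 27-28 h. Read-outs are %MN and %hypodiploid nuclei relative to nucleated events, and relative survival as the nuclei-to-bead ratio versus the 1% DMSO vehicle control (x100).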

[2] = tested on: CHO-K1; experiment: hypodiploid nuclei frequency (% of nucleated events); higher = more hypodiploid events (aneugenic)
Protocol: as §1

[3] = tested on: CHO-K1; experiment: micronucleus frequency (% of nucleated events); higher = more micronuclei (genotoxic)
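Throughout, for hypodiploid nuclei frequency (% of nucleated events): hypodiploid nuclei gated on a flow cytometer with 488 nm excitation after SYTOX Green staining, cultures at 37 °C, positive controls vinblastine without S9 and cyclophosphamide with S9.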
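Throughout, for micronucleus frequency (% of nucleated events): cells lysed with nuclei stained by SYTOX Green, then micronucleus-gated events counted against nucleated events by flow cytometry with 488 nm excitation.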
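Throughout, for relative survival (nuclei to bead ratio vs DMSO control): Lysed-cell nuclei stained with SYTOX Green and counted against counting beads by flow cytometry at 488 nm excitation, with vinblastine (no S9) and cyclophosphamide (plus S9) as positive controls.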

O=C1CCCCCN1 [Caprolactam]
Details | hypodiploid nuclei frequency, [2] [%] | micronucleus frequency, [3] [%] | relative survival, [1]
concentration: 4.46 (µM), S9 metabolic activation: with S9, exposure time: 3-4 hours | 0.4 | 2.06 | 160
concentration: 4.46 (µM), S9 metabolic activation: without S9, exposure time: 24 hours | 0.9 | 1.3 | 123
concentration: 5.57 (µM), S9 metabolic activation: with S9, exposure time: 3-4 hours | 0.2 | 1.26 | 105
concentration: 5.57 (µM), S9 metabolic activation: without S9, exposure time: 24 hours | 0.78 | 1.5 | 125
concentration: 6.97 (µM), S9 metabolic activation: with S9, exposure time: 3-4 hours | 0.16 | 0.94 | 116
concentration: 6.97 (µM), S9 metabolic activation: without S9, exposure time: 24 hours | 0.92 | 1.42 | 122
concentration: 8.71 (µM), S9 metabolic activation: with S9, exposure time: 3-4 hours | 0.18 | 1.12 | 93
concentration: 8.71 (µM), S9 metabolic activation: without S9, exposure time: 24 hours | 0.94 | 2.32 | 131
concentration: 10.9 (µM), S9 metabolic activation: with S9, exposure time: 3-4 hours | 0.16 | 1.28 | 117
concentration: 10.9 (µM), S9 metabolic activation: without S9, exposure time: 24 hours | 0.9 | 2.1 | 114
concentration: 13.6 (µM), S9 metabolic activation: with S9, exposure time: 3-4 hours | 0.16 | 1.46 | 94.8
concentration: 13.6 (µM), S9 metabolic activation: without S9, exposure time: 24 hours | 0.72 | 0.94 | 119
concentration: 17 (µM), S9 metabolic activation: with S9, exposure time: 3-4 hours | 0.2 | 1.48 | 89.9
concentration: 17 (µM), S9 metabolic activation: without S9, exposure time: 24 hours | 0.66 | 1.44 | 110
concentration: 21.3 (µM), S9 metabolic activation: with S9, exposure time: 3-4 hours | 0.16 | 0.94 | 91.1
concentration: 21.3 (µM), S9 metabolic activation: without S9, exposure time: 24 hours | 0.8 | 1.48 | 100
concentration: 26.6 (µM), S9 metabolic activation: with S9, exposure time: 3-4 hours | 0.36 | 0.6 | 113
concentration: 26.6 (µM), S9 metabolic activation: without S9, exposure time: 24 hours | 0.6 | 1.16 | 125
concentration: 33.2 (µM), S9 metabolic activation: with S9, exposure time: 3-4 hours | 0.24 | 0.82 | 126
concentration: 33.2 (µM), S9 metabolic activation: without S9, exposure time: 24 hours | 0.76 | 2.14 | 137
concentration: 41.5 (µM), S9 metabolic activation: with S9, exposure time: 3-4 hours | 0.3 | 1.1 | 132
concentration: 41.5 (µM), S9 metabolic activation: without S9, exposure time: 24 hours | 0.56 | 1.5 | 145
concentration: 51.9 (µM), S9 metabolic activation: with S9, exposure time: 3-4 hours | 0.22 | 1.32 | 105
concentration: 51.9 (µM), S9 metabolic activation: without S9, exposure time: 24 hours | 0.9 | 2.56 | 126
concentration: 64.9 (µM), S9 metabolic activation: with S9, exposure time: 3-4 hours | 0.36 | 1.48 | 123
concentration: 64.9 (µM), S9 metabolic activation: without S9, exposure time: 24 hours | 0.96 | 1.78 | 144
concentration: 81.1 (µM), S9 metabolic activation: with S9, exposure time: 3-4 hours | 0.36 | 2.14 | 125
concentration: 81.1 (µM), S9 metabolic activation: without S9, exposure time: 24 hours | 1.04 | 3.7 | 107
concentration: 101 (µM), S9 metabolic activation: with S9, exposure time: 3-4 hours | 0.32 | 3.02 | 113
concentration: 101 (µM), S9 metabolic activation: without S9, exposure time: 24 hours | 1 | 2 | 120
concentration: 127 (µM), S9 metabolic activation: with S9, exposure time: 3-4 hours | 0.2 | 1.62 | 115
concentration: 127 (µM), S9 metabolic activation: without S9, exposure time: 24 hours | 1.04 | 2.9 | 103
concentration: 158 (µM), S9 metabolic activation: with S9, exposure time: 3-4 hours | 0.36 | 2.18 | 117
concentration: 158 (µM), S9 metabolic activation: without S9, exposure time: 24 hours | 1.16 | 2.62 | 98
concentration: 198 (µM), S9 metabolic activation: with S9, exposure time: 3-4 hours | 0.32 | 1.46 | 93.5
concentration: 198 (µM), S9 metabolic activation: without S9, exposure time: 24 hours | 1.46 | 2.04 | 81.3
